Results taken from PubChem BioAssay AID1346428 (National Center for Advancing Translational Sciences (NCATS), 2018).
Where “and” joins values, the source holds several entries; their conditions need not be identical. Identical values can stand only once. Hit rate of the full screen: of about 48,000 compounds, about 1,200 (2.5%) were called active. Not shown: some 2% with an inconclusive outcome.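 The calls were made as follows: active = activation of at least 60% and not above a set upper limit (about 1 call in 100 departs from these limits); inconclusive = activation of 40% to 60%, or above that upper limit; inactive = activation under 40%.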 The list shows a part of the results.

These compounds were tested against Probable G-protein coupled receptor 32 (Homo sapiens) (UniProt O75388) (assay: qHTS for Agonists of Human Resolvin D1 Receptor DRV1). Details: CHO-K1 GPR32 beta-arrestin PathHunter luminescence, 90 min; at 76.9 µM; hits give high values; zero percent set by DMSO-only wells.
Procedure, shortened: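 Beta-arrestin recruitment read-out: luminescence from complemented beta-Gal in CHO-K1 GPR32 PathHunter cells, measured 1 h after detection reagent at ambient temperature following 90 min compound exposure at 37 °C; DMSO served as basal (EC0) control.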
Also: 0% is about no effect.

UniProt O75388, sequence (O75388 whole entry, looked up): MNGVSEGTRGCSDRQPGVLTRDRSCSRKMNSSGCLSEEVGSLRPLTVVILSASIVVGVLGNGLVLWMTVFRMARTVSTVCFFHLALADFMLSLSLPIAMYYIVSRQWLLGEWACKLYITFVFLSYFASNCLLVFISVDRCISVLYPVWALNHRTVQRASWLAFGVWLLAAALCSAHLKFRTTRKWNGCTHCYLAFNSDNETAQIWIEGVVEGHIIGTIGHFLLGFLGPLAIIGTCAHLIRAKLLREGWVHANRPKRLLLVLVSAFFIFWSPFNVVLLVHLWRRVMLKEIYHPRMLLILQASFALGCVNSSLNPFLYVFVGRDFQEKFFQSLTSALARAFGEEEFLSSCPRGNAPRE

activation, inactive:
COc1ccc(CNC(=O)Nc2cn(CC(C)C)c(=O)c3ccccc23)c(OC)c1 -8.66%
Nc1c2c(nc3ccccc13)CCCC2 2.12% and 11.2%
CCc1ccc(CNC(=O)c2ccc(CSc3nc4ccncc4n3Cc3ccccc3)cc2)cc1 -15.7%
CCC(Oc1ccccc1)C(=O)Nc1nnc(S(=O)(=O)Nc2ccccc2)s1 (centres undefined) 13.6%
COC(=O)CCc1sc(Nc2ccc(OC)cc2)nc1-c1ccc(OC)cc1 -31.4%
Cc1ccccc1NC(=O)CC1C(=O)NCCN1C(=O)c1cccc(Cl)c1 (centres undefined) 11.4%
CC(=O)c1ccc(N2CCN(C(=O)NCc3noc4ccc(C)cc34)CC2)cc1 -4.77%
Cc1noc(-c2ccccc2OCC(=O)Nc2cccc([N+](=O)[O-])c2)n1 -3.24%
Cc1ccc(S(=O)(=O)NCc2nc3nc(C)cc(C)n3n2)c(C)c1 -12%
Cc1ccc(C)c(N(C)C(=O)C2CCN(S(=O)(=O)c3cccc4nsnc34)CC2)c1 1.13%
COc1ccc(-c2nnn3c2nc(N2CCCC(C)C2)c2ccccc23)cc1 (centres undefined) 2.69%
CC(=O)c1cc(C(=O)Nc2cccc(C)c2)c2ccccn12 -4.57%
COc1ccc(N2CCN(C(=O)CCS(=O)(=O)c3cc4c(cc3Cl)NC(=O)CO4)CC2)cc1 4.57%
CCN1c2ccccc2-c2nc(SCC(=O)Nc3ccc(C)c(Cl)c3)ncc2S1(=O)=O -15.4%
CCOC(=O)c1ccccc1NC(=O)CSc1nc2ncccc2[nH]1 -0.681%
CCOC(=O)c1c(C)c(-c2ccccc2)n(CC(=O)Nc2cc(OC)cc(OC)c2)c1C -8.03%
COc1cc(C2NC(=O)NC(C)=C2C(=O)Nc2cc(C)cc(C)c2)ccc1O (centres undefined) -1.79%
CCOC(=O)c1noc2ncnc(N3CCN(c4ccccc4OC)CC3)c12 -14.7%
COC(=O)CNC(=O)Nc1cc(C(=O)NCc2ccc(C)cc2)ccc1N1CCCC1 -9.45%
CC(C)(C)NS(=O)(=O)c1ccc2nc(NC(=O)c3cccnc3)sc2c1 39.2%
O=C(Nc1ccc(F)cc1F)c1ccc(CN2CC(=O)N3CCCCC3C2=O)cc1 (centres undefined) 0.798%
CC(=O)N1c2ccccc2CC1C(=O)N1CCN(c2ccc(F)cc2)CC1 (centres undefined) -1.87%
COc1ccc(C)cc1NC(=O)c1oc2ccc(S(=O)(=O)N(C)C3CCCCC3)cc2c1C -13%
COC(=O)C1CCN(S(=O)(=O)c2cc3c4c(c2)C(C)C(=O)N4CCC3)CC1 (centres undefined) 4.25%
Cc1ccc(Cn2c(SCC(=O)NCc3ccc(Cl)cc3)nc3ccsc3c2=O)cc1 -4.1%
CC(C)(C)c1cc(C(C)(C)C)c2oc(=O)c(-c3nc4ccccc4[nH]3)cc2c1 -2.81%
O=C(CSc1nc2ccccc2c2nc(-c3ccccc3)nn12)Nc1ccc(Br)cc1 13%
CCS(=O)(=O)N1CC(=O)N(c2ccccc2C)C(C)(C(=O)NC2CCCCC2)C1 (centres undefined) 1.79%
COCCCNC(=O)Cn1c(=O)n(-c2ccc(C)cc2)c(=O)c2c1c1cc(C)ccc1n2C 14.1%
Cc1ccc(NC(=O)CN2CCCN(Cc3cc(C)ccc3C)S2(=O)=O)c(Cl)c1 -21.4%
COc1cccc(N2CCN(C(=O)C3CCC(CNS(=O)(=O)c4ccc(Br)s4)CC3)CC2)c1 (centres undefined) 48.4%
Cc1ccc(Cl)cc1N1CCN(C(=O)c2cn(C3CCCCC3)c(=O)c3c2c2ccccc2n3C)CC1 -2.08%
COc1ccc(NC(=O)CSc2nnc(-c3ccc(C)cc3)o2)cc1 -6.89%
CN(C)c1ccc(C(CNC(=O)COc2ccc(Cl)cc2)N2CCOCC2)cc1 (centres undefined) -15.2%
COc1cccc(-n2ccnc2SCC(=O)Nc2cccc(C)c2C)c1 15.7%
CCCC(=O)NCC(c1ccc2c(c1)OCO2)N1CCN(c2ccc(F)cc2)CC1 (centres undefined) -21.4%
CCc1ccc(NC(=O)Cn2cnc3sc(C)c(S(=O)(=O)N4CCC(C)CC4)c3c2=O)cc1 -6%
COc1ccc(-c2nc3c(C#N)c[nH]n3c2NC2CCCCC2)c(OC)c1 -23.5%
COc1ccc(-n2ncc(C(=O)NCc3ccccc3)c2C2CCN(C(=O)OC(C)(C)C)CC2)cc1 -19.4%
COc1ccc(CCNC(=O)CCn2c(=O)c3cccn3c3ccc(F)cc32)c(OC)c1OC -20%
Cc1ccc(OCc2nc3ccccc3n2CC(C)C)cc1 -24.7%
CCOc1ccccc1CNC(=O)Nc1cn(CC(C)C)c(=O)c2ccccc12 -32.6%
Cc1cc2c(cc1S(=O)(=O)NCc1ccc(N(C)C)cc1)OCC(=O)N2 -1.72%
CC(Oc1ccccc1)C(=O)Nc1nc2ccc(S(N)(=O)=O)cc2s1 (centres undefined) -25.2%
CC1(c2ccc(Cl)cc2)CC(C)(C)N(C(=O)c2ccccc2)c2ccccc21 (centres undefined) 8.59%
Cc1ccc(CN2CCC(CNc3ncnc4onc(-c5ccc(Cl)cc5)c34)CC2)cc1 16.9%
CCCN(C(=O)c1cc2c(s1)-c1ccccc1SC2)c1ccccc1F -1.84%
COc1ccc(N(CC(=O)NC(C)c2ccccc2)S(=O)(=O)c2c(C)noc2C)cc1 (centres undefined) -23.5%
CC1CN(C(=O)Nc2ccc(C(=O)NCCc3ccccc3)cc2)c2ccccc2S1 (centres undefined) -17.3%
O=C(CSc1nccn1Cc1ccccc1)NCc1ccc(F)cc1 15.5%
Cc1cc(C)nc(NS(=O)(=O)c2ccc(NC(=O)COc3ccc(Cl)cc3C)cc2)n1 34.8%
CCOc1ccc(C(=O)Nc2cc(-c3nc4ccccc4o3)ccc2C)cc1Cl 13.5%
CCN(Cc1ccccc1)C(=O)c1c(C)oc2ncn(C)c(=O)c12 -7.76%
CCOc1cc(-c2ccc(OC(=O)c3ccccc3F)cc2)cc(=O)c2c(C)oc(C)c12 -21.7%
